About 14,000 (4.5%) of roughly 310,000 compounds showed an effect of 50% or more. Effects have a minus sign here. The list shows a part of the results.
molecular target: human ether-à-go-go-related gene (hERG) potassium channel (human, UniProt Q12809); experiment: primary screen, population patch clamp on CHO cells stably expressing hERG
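Also: peak tail current of the secondary pulse compared with the same well before compound.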

human ether-à-go-go-related gene (hERG) potassium channel, sequence (Q12809 whole entry, looked up): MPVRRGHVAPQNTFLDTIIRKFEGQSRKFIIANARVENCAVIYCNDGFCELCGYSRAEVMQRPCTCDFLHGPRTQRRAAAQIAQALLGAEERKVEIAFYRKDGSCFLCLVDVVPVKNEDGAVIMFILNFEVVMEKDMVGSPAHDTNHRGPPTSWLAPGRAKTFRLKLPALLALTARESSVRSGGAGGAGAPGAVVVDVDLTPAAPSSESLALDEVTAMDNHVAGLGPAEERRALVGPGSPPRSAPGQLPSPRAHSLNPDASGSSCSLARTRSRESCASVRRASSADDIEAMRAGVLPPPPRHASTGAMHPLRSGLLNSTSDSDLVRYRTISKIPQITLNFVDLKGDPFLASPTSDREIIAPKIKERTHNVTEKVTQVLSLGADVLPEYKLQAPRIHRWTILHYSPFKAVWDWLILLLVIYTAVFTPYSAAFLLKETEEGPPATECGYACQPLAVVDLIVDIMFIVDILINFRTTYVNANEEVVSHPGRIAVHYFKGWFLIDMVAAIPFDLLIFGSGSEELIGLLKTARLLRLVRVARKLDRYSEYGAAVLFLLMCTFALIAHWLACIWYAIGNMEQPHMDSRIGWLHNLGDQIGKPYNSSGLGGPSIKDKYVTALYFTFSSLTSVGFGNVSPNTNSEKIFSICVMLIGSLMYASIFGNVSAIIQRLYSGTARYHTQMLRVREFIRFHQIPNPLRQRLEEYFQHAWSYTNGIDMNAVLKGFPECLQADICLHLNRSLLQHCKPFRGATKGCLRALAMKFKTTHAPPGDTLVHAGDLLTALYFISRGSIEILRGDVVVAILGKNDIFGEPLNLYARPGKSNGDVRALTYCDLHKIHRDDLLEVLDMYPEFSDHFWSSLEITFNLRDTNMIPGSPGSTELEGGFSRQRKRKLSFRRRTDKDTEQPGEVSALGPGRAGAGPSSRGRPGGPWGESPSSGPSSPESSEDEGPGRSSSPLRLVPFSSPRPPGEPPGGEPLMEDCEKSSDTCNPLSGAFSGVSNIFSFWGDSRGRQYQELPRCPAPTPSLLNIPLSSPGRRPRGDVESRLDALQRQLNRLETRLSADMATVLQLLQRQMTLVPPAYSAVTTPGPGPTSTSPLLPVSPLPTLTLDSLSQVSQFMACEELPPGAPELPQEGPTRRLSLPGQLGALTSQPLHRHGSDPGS

Row | Compound | hERG current change (%, negative = inhibition) at 10uM [%]
1 | CCNC(=S)NNC(=O)c1cccnc1 | 15.7
2 | O=C(NC1CCCCC1)c1ccc(S(=O)(=O)N2CCOCC2)cc1 | -2.69
3 | c1ccc(Nc2nc(-c3ccncc3)cs2)cc1 | 1.34
4 | O=C(O)c1cccc(-c2ccc(/C=N/NC(=O)c3cccnc3)o2)c1 | -3.81
5 | CCN(CCCNC(=O)CCn1c(=O)[nH]c2ccsc2c1=O)c1ccccc1 | 4.54
6 | CCCCNC(=O)CCCCCn1c(=O)[nH]c2cc(OC)c(OC)cc2c1=O | 2.05
7 | Cc1ccccc1-c1nc(CN2CCC(C(=O)NCc3cccnc3)CC2)c(C)o1 | -32.8
8 | COc1cccc(-n2nnc3c(=O)n(CC(=O)OCc4ccccc4)cnc32)c1 | 9.39
9 | C/C(=N\NC(=O)c1cc(-c2ccncc2)nc2ccccc12)c1ccc(N2CCOCC2)cc1 | 7.37
10 | COc1cc(O)c(C(CCN2CCOCC2)c2cc(OC)c(OC)c(OC)c2)c(OC)c1 (centres unmarked) | 8.02
11 | O=C(c1ccccc1F)N1CCN(C(=O)C(c2ccccc2)c2ccccc2)CC1 | -14.7
12 | CCN1CCN(C(=S)c2ccc([N+](=O)[O-])cc2)CC1 | -36.9
13 | CSc1ncccc1C(=O)N(C)CC(=O)Nc1ccc(Cl)c(C(F)(F)F)c1 | 12.8
14 | CC1=CC(C)(C)N(C(=O)CSc2ncn[nH]2)c2ccccc21 | 2.71
15 | Cl.O=C(NC1CCCCC1)NC1CCN(CC(=O)N2CCOCC2)CC1 | 22.4
16 | Cc1cc(C)c(NC(=O)CNC(=O)Cc2ccc(S(=O)(=O)N3CCOCC3)s2)c(C)c1 | -1.76
17 | COc1cc(/C=C2/SC(=O)N(CC(=O)N3CCCC3)C2=O)ccc1Oc1ccc([N+](=O)[O-])cn1 | -22.2
18 | O=C(CSc1nc(-c2ccco2)cc(C(F)(F)F)n1)N1CCN(Cc2ccccc2)CC1 | -58.8
19 | O=C(CCN1CCN(Cc2ccccc2)CC1)NNC(=O)Nc1cccc([N+](=O)[O-])c1 | -32.6
20 | C=CCSc1nc(=O)n2ccccc2n1 | 9.57
21 | COc1cccc(-c2cc(C(=O)Nc3nc4ccccc4s3)c3ccccc3n2)c1 | -13.6
22 | CC(C)(C)OC(=O)[C@H](Cc1ccccc1)NC(=O)c1nc[nH]c1C(=O)NCC(=O)OCc1ccccc1 | -1.82
23 | CC1(OC(=O)CCc2ccccc2)C(=O)C=C2C=C(c3ccc(C#N)cc3)N(c3ccccc3)C=C2C1=O (centres unmarked) | 14.3
24 | Cc1ccc(CNC(=O)CN2C(=O)CSc3ccc(S(=O)(=O)N4CCCCC4)cc32)cc1 | -47.9
25 | CCCc1cc(=O)[nH]c(SCC(=O)N2CCN(S(=O)(=O)c3ccc(Cl)cc3)CC2)n1 | 4.81
26 | CCOC(=O)c1c(-c2ccc(OC)cc2)csc1NC(=O)CCN1C(=O)c2ccccc2C1=O | -9.76
27 | COC(=O)[C@@]1(Cc2ccc(F)cc2)[C@@H]2[C@@H](CC(=O)[C@H]2CC(=O)C(=O)N(C)C)CN1C(=O)c1ccccc1 | -16.6

Row | Compound | hERG current change (%, negative = inhibition) at 10uM [%]
28 | CCOc1ccc(NC(=O)CN(C)C(=O)c2ccccc2OCc2c(C)noc2C)cc1OCC | 5.25
29 | CC(C)CCn1c(N2CCc3ccccc3C2)nc2c1c(=O)[nH]c(=O)n2C | -2.34
30 | CCCN1C(=O)CC(C(=O)OC)=C1C | 12.9
31 | COc1cc(/C=C/C(=O)OCC(=O)Nc2ccc3c(c2)OCCO3)ccc1O | 2.9
32 | CS(=O)(=O)N1CCc2cc(C(=O)N3CCOCC3)ccc21 | 13.8
33 | CCc1nc(SCC(=O)Nc2ccccc2Cl)n[nH]1 | 17.1
34 | O=C(O)CNS(=O)(=O)c1c(Cl)cccc1Cl | 2.98
35 | Nc1nonc1-c1nc2ccccc2n1CC(=O)N/N=C/c1ccc(-c2ccccc2C(=O)O)o1 | 5.75
36 | COc1cc(OC)cc(C(=O)Nc2cccnc2)c1 | 14.4
37 | CCOC(=O)c1c(C)oc2ccc(OC(=O)c3cccs3)cc12 | -5.96
38 | Cc1cccc(OCCOCCN2CCNCC2)c1C.O=C(O)C(=O)O | -11.2
39 | OC(CCN1CCOCC1)c1ccccc1 (centres unmarked) | 4.54
40 | O=C(CSc1nc2ccccc2s1)N1c2ccccc2Sc2ccc(C(F)(F)F)cc21 | 5.56
41 | COc1ccc(-c2nnc(SCC(=O)NC(=O)NCc3ccco3)o2)cc1 | 11.8
42 | CCCN(CC(=O)Nc1ccccc1OC)C(=O)Cc1ccc2c(c1)CCC2 | -18.1
43 | O=C(NCc1n[nH]c(=S)n1-c1ccc(Br)cc1)c1ccc(S(=O)(=O)N2CCCC2)cc1 | 13.7
44 | O=C1NC(=O)N(c2cccc(Cl)c2)C(=O)/C1=C\c1ccc(Sc2nc3ccccc3[nH]2)o1 | 13.9
45 | CC(=O)c1ccc(N2CCN(C(=O)Nc3ccc(F)cc3)CC2)cc1 | -24.5
46 | Nc1c(C(=O)NCC2CCCO2)sc(=S)n1-c1ccccc1 (centres unmarked) | -1.09
47 | Cc1cccc(C2NC(=O)c3c(sc(C)c3C)N2)c1O (centres unmarked) | 13.9
48 | CN(Cc1ccco1)c1ncnc2ccc(-c3ccc4c(ccn4C)c3)cc12 | 14.2
49 | COc1ccc(C2=NOC(C)(c3sc(-c4ccc(Cl)cc4)nc3C)C2)cc1 (centres unmarked) | 15.2
50 | O=S(=O)(c1ccc(F)cc1)n1ccc(-c2cnc(-c3ccccc3)s2)n1 | -3.22
51 | CCCN(Cc1cc2ccccc2[nH]c1=O)C(=O)c1cccc([N+](=O)[O-])c1 | -16.8
52 | CC(C)NC(=O)C(C)N1CCN(S(=O)(=O)c2ccc3ccccc3c2)CC1 (centres unmarked) | 5.36
53 | CC(C)(C)OC(=O)CNC(=O)c1[nH]cnc1C(=O)NCCCCC[NH3+].[Cl-] | 9.23

Source: paper PMC4336329 (PLoS ONE, 2015)
